Sequences with one replicate were seen in a single cluster, so their values are uncertain.
system: ATP; assay: switch fluorescence ratio, 500 uM ATP over buffer (Cy3 cluster intensity, sum of 5 cycles each) (fold (ratio)); higher = stronger signal-on switching upon ATP binding; sequences stand for … in TCGTCGGCAGCGTCAGATGTGTATAAGAGACAGTTTTTTTTTTTTTTTTTTTTTTTTT…TC; settings: aptamer strand: ATP DNA aptamer (quencher-CACCTGGGGGAGTATTGCGGAGGAAGG + anchor), 100 nM annealed; ATP concentration: 500 uM; one replicate
Outline: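 The fluorescence ratio divides summed target-cycle Cy3 intensity by summed buffer-cycle Cy3 intensity for each cluster and is averaged per switch-domain sequence. Cy3-labelled switching-strand clusters on a modified Illumina MiSeq flow-cell were annealed to 100 nM quencher-labelled ATP aptamer, then imaged in selection buffer and again after 15 min with 500 uM ATP at 22 °C. Five such cycles were run, with NaOH stripping and re-annealing between them, and clusters outside 100-1000 RFU were excluded.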
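Note: ATP exposure 15 min at 22 °C before imaging.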

Sequence	switch fluorescence ratio
ACGTGTAACA	0.997
ACGTGTTCTG	0.954
ACGTTACTTT	1.4
ACGTTCAAAG	1.04
ACGTTGCGGG	0.995
ACGTTGGATG	1.01
ACGTTGTTAG	1.03
ACGTTTAGCG	1
ACGTTTGAAA	0.998
ACTAAACGAC	1.14
ACTAACCCCC	1.51
ACTAACCTAT	1.1
ACTAACTAGG	1.17
ACTAAGCA	1.08
ACTAAGGATA	0.962
ACTAAGTAT	1.03
ACTAATAAAT	1
ACTAATCGAT	1.01
ACTAATGCTA	1.02
ACTAATTCGA	0.988
ACTACAAAAA	1.07
ACTACGGGC	1.02
ACTACTAATG	1.1
ACTACTAT	1.08
ACTACTGGA	0.99
ACTACTTCGA	1.02

Sequence	switch fluorescence ratio
ACTAGAAAGC	2.64
ACTAGGCAGC	1.04
ACTAGGGCAC	1.04
ACTAGGTC	1.05
ACTAGTTCAA	0.98
ACTAGTTCGT	1
ACTATAACA	1.04
ACTATAGACT	1.05
ACTATAGTAG	1
ACTATGACTA	1.03
ACTATGATGC	1.04
ACTATGCAG	1.05
ACTATTAGTT	1.01
ACTATTCGTT	1.03
ACTATTTAAA	0.985
ACTATTTGTC	0.999
ACTATTTTAG	0.982
ACTCAAGAAA	1.1
ACTCACAAGC	1.77
ACTCAGAGAA	1
ACTCAGCGGG	1.14
ACTCAGGTTC	1.09
ACTCAGTAAG	1.09
ACTCATCAG	1.02
ACTCATCCTG	1.16
ACTCATTAG	0.999

Sequence	switch fluorescence ratio
ACTCCCACGA	1.69
ACTCCGATA	3.2
ACTCCGGCCA	3.75
ACTCCTGCTG	1.39
ACTCCTGGGC	1.43
ACTCGAAGCG	0.983
ACTCGAGTT	1
ACTCGGAGGT	1.01
ACTCGGGCTC	1.01
ACTCGGTTGA	1.06
ACTCGTCACT	1.12
ACTCGTGCGG	0.97
ACTCGTGTAT	1.02
ACTCTACGAG	1.06
ACTCTAGAGA	1.06
ACTCTCAGTA	0.948
ACTCTCGCTC	3.5
ACTCTGACGG	1.11
ACTCTGGA	1.04
ACTCTGGTGC	1.11
ACTCTGTGCC	1.24
ACTCTTAT	1.09
ACTGAAATT	0.889
ACTGACCTTC	1.77
ACTGACTATA	1.14
ACTGAGAAAG	1.07

Sequence	switch fluorescence ratio
ACTGAGAGTT	1.03
ACTGAGCTGG	1
ACTGAGTTCT	1.05
ACTGATATTT	1.03
ACTGCGGAT	1.01
ACTGCGGCTC	1.09
ACTGCTCGAT	1.09
ACTGCTGAGA	1.06
ACTGGAACGC	1.25
ACTGGACTT	1.21
ACTGGAGACT	1.01
ACTGGATAT	1.03
ACTGGCCCTT	0.993
ACTGGGAATA	1.02
ACTGGGCAGC	1.08
ACTGGGCGAC	1.01
ACTGGGTCGC	0.967
ACTGGGTTAA	0.987
ACTGGTCCTG	0.948
ACTGGTTAAG	0.979
ACTGGTTCTG	0.972
ACTGTAAACG	1.03
ACTGTATA	1.23
